Source: publication PMC6919601, “Identification of Plasmodium dipeptidyl aminopeptidase allosteric inhibitors by high throughput screening” (PLoS ONE, 2019)
Out of some 110,000 compounds screened, about 230 (0.21%) showed an effect of 50% or more. Some of the results follow.

Target: DPAP1 (Plasmodium falciparum, UniProt Q8IIJ9)
Assay: primary screen, percent inhibition; read by cleavage of a fluorogenic dipeptide substrate; higher = more effect of the substance
Design: species or system P. falciparum D10 trophozoite lysates; single well
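Also: 30 min substrate incubation versus DMSO and 10 µM JCP410 controls.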

DPAP1, sequence (Q8IIJ9 whole entry, looked up): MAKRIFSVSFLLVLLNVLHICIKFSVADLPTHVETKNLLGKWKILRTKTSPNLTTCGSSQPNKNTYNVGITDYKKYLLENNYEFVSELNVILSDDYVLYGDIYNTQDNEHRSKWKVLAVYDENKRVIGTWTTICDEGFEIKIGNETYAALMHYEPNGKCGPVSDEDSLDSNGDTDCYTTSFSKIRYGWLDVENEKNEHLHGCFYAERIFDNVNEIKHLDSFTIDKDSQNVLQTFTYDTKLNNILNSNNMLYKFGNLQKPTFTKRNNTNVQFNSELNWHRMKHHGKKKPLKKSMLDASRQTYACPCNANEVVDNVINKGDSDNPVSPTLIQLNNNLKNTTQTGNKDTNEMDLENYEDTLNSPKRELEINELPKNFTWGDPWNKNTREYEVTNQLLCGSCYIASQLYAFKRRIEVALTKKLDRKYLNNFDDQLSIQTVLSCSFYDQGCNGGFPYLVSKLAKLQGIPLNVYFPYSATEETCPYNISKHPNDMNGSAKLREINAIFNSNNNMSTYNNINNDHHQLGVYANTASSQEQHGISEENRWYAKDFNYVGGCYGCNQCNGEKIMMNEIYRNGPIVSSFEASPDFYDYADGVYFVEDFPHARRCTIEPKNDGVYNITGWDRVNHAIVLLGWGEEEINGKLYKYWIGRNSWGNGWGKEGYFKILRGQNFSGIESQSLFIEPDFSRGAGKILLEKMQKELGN

Row | SMILES | % Inhibition @ 10 uM
1 | CC(C)(C)c1ccc(-c2nc(CN3CCOCC3)cc(CN3CCOCC3)c2O)cc1 | 3.98%
2 | CCc1nc2ccc(C(=O)NC(C)c3ccc4c(c3)OCCO4)cc2nc1CC (stereo not drawn) | 5.17%
3 | Cc1ccccc1OCC(=O)Nc1ccc(C(=O)NCC(C)C)cc1 | -1.95%
4 | C=CCc1ccccc1OCC(O)CN1CC(C)OC(C)C1 (stereo not drawn) | -2.12%
5 | CCOCCCN(Cc1ccco1)C(=O)Cn1ncc2c(=O)oc3ccc(C)cc3c21 | -1.7%
6 | Cc1cc(O)c(C(=O)c2ccccc2C(=O)O)cc1C | 3.84%
7 | CCOC(=O)N1CCC(N2Cc3cccc(C(=O)NCCCN4CCCC4=O)c3C2=O)CC1 | 1.23%
8 | CC(=O)c1sc(NC(=O)COc2ccc(C(C)(C)C)cc2)nc1C | -0.661%
9 | CCO/C(O)=C1/C(C)=NC2=C(C(=O)CCC2)C1c1ccc(F)cc1 (stereo not drawn) | -4.04%
10 | CCN1C2=C(C(=O)CCC2)C(c2cc(Cl)ccc2OCC(=O)O)C2=C1CCCC2=O | 3.57%
11 | COC(=O)c1cc2c(=O)n3cccc(C)c3nc2n(CCCn2ccnc2)c1=N | 3.16%
12 | Cc1ccc(NS(=O)(=O)c2ccc(NC(=O)C3CC3)cc2)cc1C | -5.51%
13 | CC(C)(C)c1ccc(C(=O)O/N=C(\N)c2ccccn2)cc1 | 0.343%
14 | Cc1ccc(Cl)cc1NC=C1C(=O)N(C)C(=O)N(C)C1=O | -2.87%
15 | CCCCOc1ccc(C(C)NC(=O)C2CCCN(S(=O)(=O)CC)C2)cc1 (stereo not drawn) | 3.24%
16 | O=C(c1ccc(Br)o1)N1CCN(C(c2ccccc2)c2ccccc2)CC1 | -1.54%
17 | CCC1CCCCN1C(=O)CSc1nnc(-c2cccs2)o1 (stereo not drawn) | -4.66%
18 | Cc1cc2c(c(=O)n1Cc1cccnc1)C(c1ccco1)C(C#N)=C(N)O2 (stereo not drawn) | 3.62%
19 | CSC1=C(C#N)C(C)(c2ccccc2)C(C#N)C(=O)N1 (stereo not drawn) | -4.33%
20 | CCO/C(O)=C1\C(C)=NC2=C(C(=O)c3ccccc32)C1c1cc(Br)c(OCC)c(OC)c1 (stereo not drawn) | -3.4%
21 | CC(NC(=O)c1ccc2ccccc2n1)c1ccccc1 (stereo not drawn) | -4.93%
22 | CN(C)c1ccc(/C=C(\C#N)c2nc(-c3ccc(-c4ccccc4)cc3)cs2)cc1 | 5.77%
23 | Cc1nn(-c2ccc(F)cc2)c(O)c1/C=N/c1ccc(SC#N)cc1 | -2.68%
24 | N#CC1=C(N)OC2=C(C(=O)CCC2)C1c1ccccc1[N+](=O)[O-] (stereo not drawn) | -1.29%
25 | CCOc1ccc(NC(=O)CN2C(=O)S/C(=C/c3cc(C)n(C)c3C)C2=O)cc1 | -8.2%

Row | SMILES | % Inhibition @ 10 uM
26 | COc1nc(C)nc2c(CN3CCCCC3)c(C)[nH]c12 | 3.69%
27 | CC1CCN(S(=O)(=O)c2ccc3ncc(C(=O)O)c(O)c3c2)CC1 | -1.46%
28 | Cc1ccc(/N=C(/Nc2ccc(C)cc2)c2ccccc2)cc1 | -4.06%
29 | CC(=O)C1C(=O)CC(O)(c2ccccc2)CC1C=C(Cl)Cl (stereo not drawn) | -0.215%
30 | COc1ccc(NC(=O)c2ccccc2N(C)S(=O)(=O)c2ccc(C)cc2)cc1OC | -3.45%
31 | COc1ccc(-c2nc(S(=O)(=O)c3ccccc3)c(N3CCCCC3)o2)cc1OC | -1.25%
32 | CN(C)c1ccc(CN(C(=O)COc2ccccc2Cl)C2CCS(=O)(=O)C2)cc1 (stereo not drawn) | -0.28%
33 | Cc1cc(C)c2c(-n3cccc3)c(C(=O)NCCCN3CCc4ccccc4C3)sc2n1 | -4.68%
34 | Cc1ccc(/C=C2\N=C(C3CCCCC3)OC2=O)cc1 | -0.251%
35 | O=P(O)(O)c1ccccc1OCCCOc1ccccc1P(=O)(O)O | -5.63%
36 | O=C(NC(=O)C1CCNCC1)c1cc2c(s1)CS(=O)(=O)C2 | -3.17%
37 | Fc1ccc(Nc2nc(-c3ccc(-c4ccccc4)cc3)cs2)cc1 | -4.31%
38 | O=C(Nc1ccc(S(=O)(=O)Nc2ccc(F)cc2)cc1)c1ccc(F)cc1 | -2.16%
39 | CC(C)CC(C(=O)NCC#N)c1cccc(-c2ccc(NS(=O)(=O)c3cccs3)cc2)c1 (stereo not drawn) | 0.173%
40 | Oc1cc(-c2ccccc2)nc2nc(Cc3ccccc3)nn12 | 0.795%
41 | COc1ccc(C(=O)Nc2ccc(Cl)cc2F)c(OC)c1 | 5.26%
42 | Cc1coc2c(C)c3oc(=O)c(CC(=O)O)c(C)c3cc12 | 2.21%
43 | CC1=C(C(=O)OCC2CCCO2)C(c2cccc(C(F)(F)F)c2)C2=C(O)CCCC2=N1 (stereo not drawn) | 12.2%
44 | CC(=O)c1ccc(C(=O)N2CCN(c3ccccc3F)CC2)cc1 | -0.795%
45 | COc1cc(/C=C(\C#N)c2nc3ccccc3[nH]2)c(Br)cc1O | 9.47%
46 | CCCCN(Cc1ccco1)C(=O)CCc1c(C)nc2c3c(C)cc(C)nc3nn2c1C | -4.74%
47 | COc1ccc(/C=C/c2ncc3ccccn23)cc1 | 9.21%
48 | COc1ccc(CNc2nc(-c3ccc(F)cc3)cc(C(F)(F)F)n2)cc1 | 0.287%
49 | CCCN1CCC(N(C)C2CCCCC2)CC1 | 1.57%
50 | Cc1ccc(C)c(NC(=O)c2cnccn2)c1 | -3.74%

Row | SMILES | % Inhibition @ 10 uM
51 | CC(C)(C)Oc1ncc(-c2ccsc2)c(OC(C)(C)C)n1 | 2.4%
52 | Cn1c(=O)cc2c3c(c(N4CCOCC4)ccc31)C(=O)c1ccccc1-2 | -1.64%
53 | CN(CCCNC(=O)C1CCN(S(=O)(=O)N2CCC3(CC2)OCCO3)CC1)Cc1ccccc1 | 2.18%
54 | CNC(=O)C(=O)C(CCc1ccccc1)NC(=O)[C@H](CC(C)C)NC(=O)OCc1ccccc1 (stereo partly drawn) | -5.64%
55 | COC(=O)CCC(=O)NCc1ccccc1 | -0.274%
56 | COc1ccc(OC)c(NC(=O)c2cccc(C)c2)c1 | -2.19%
57 | CCOc1ccc2nc(SCC(=O)Nc3ccccc3)sc2c1 | -0.736%
58 | Cc1ccc(C(CC(=O)O)N2Cc3ccccc3C2=O)cc1 (stereo not drawn) | -4.69%
59 | COc1ccc(S(=O)(=O)N2CCCN(S(=O)(=O)c3ccc(OC)cc3)CC2)cc1 | 3.53%
60 | COC(=O)CC1=C(C)C(=O)C=C2C(C)(C)CCC[C@@]21C | 3.48%
61 | CC1CN(Cc2c(O)ccc3c(=O)c(Oc4ccccc4Cl)c(C(F)(F)F)oc23)CC(C)O1 (stereo not drawn) | -7.03%
62 | CSc1ncc(CNCCc2ccc(O)cc2)c(N)n1 | 0.324%
63 | COc1cc(NS(=O)(=O)c2ccc(NC(=O)Nc3cccc(C)c3)cc2)nc(OC)n1 | 2.79%
64 | O=[N+]([O-])c1ccc(Sc2cccc3cccnc23)c2nonc12 | 20.7%
65 | CC(C)NC(=O)C1CCN(S(=O)(=O)N2CCCCCC2)CC1 | 1.16%
66 | COc1ccc(S(=O)(=O)N(CC(=O)NCc2cccnc2)c2cccc(Cl)c2)cc1 | 3.37%
67 | Cc1ccc(C(=O)N2CCN(c3ccnc4cc(Cl)ccc34)CC2)cc1 | -0.403%
68 | CCCCCC(=O)Nc1nnc(COc2ccccc2)s1 | 1.58%
69 | COc1cc(/C=C2/C(=O)N(c3ccc([N+](=O)[O-])cc3)N=C2C)cc(Cl)c1O | -4.61%
70 | CC1CN(Cc2ccccc2C(F)(F)F)CC(C)O1 (stereo not drawn) | -3%
71 | Cn1c(=O)[nH]c(=O)c2c1nc(NCc1ccccc1)n2CC(O)c1ccccc1 (stereo not drawn) | 0.627%
72 | C=CCc1cccc2cc(C(=O)O)c(=O)oc12 | -5.94%
73 | COc1ccc2c(c1)N(C(N)=S)C(C)(C)C=C2C | -2.32%
74 | O=S(=O)(NCc1cccs1)c1cccc(S(=O)(=O)c2ccc(Br)cc2)c1 | 0.389%
75 | c1ccc(N2CCN(c3cc(-n4cccn4)ncn3)CC2)cc1 | -0.636%

Row | SMILES | % Inhibition @ 10 uM
76 | CC(=O)Nc1sc(Cl)cc1C(=O)Nc1ccccc1 | 1.37%
77 | CCOc1ccc(-c2[nH]nc3c2C(c2ccc(F)cc2)NC3=O)cc1 (stereo not drawn) | -1.54%
78 | O=C(Nc1cccc(Cl)c1)N1CCN(C/C=C/c2ccccc2)CC1 | -1.98%
79 | CC1(C)OC(=O)C(=Cc2ccc(Cl)cc2Cl)C(=O)O1 | -7.23%
80 | CCC1CCC(N2CCN(c3ccccc3F)CC2)CC1 (stereo not drawn) | -1.41%
81 | Cc1nc2scc(C)n2c(=O)c1S(=O)(=O)N1CCN(Cc2ccccc2)CC1 | -5.67%
82 | N#C/C(=C\c1ccc(Br)cc1)c1nc(-c2ccc(-c3ccccc3)cc2)cs1 | 1.91%
83 | CC(C)(C)OC(=O)N1CCC(c2c(C(=O)NCCN3CCCC3)cnn2-c2ccccc2)CC1 | -5.6%
84 | Cc1cc(C(C)(C)C)cc(C)c1S(=O)(=O)N1CC(=O)Nc2ccccc21 | -5.58%
85 | O=C(O)CCC(=O)Nc1ccccc1C(=O)O | -2.55%
86 | COc1ccc(NC(=O)C2C3CCC(C3)C2C(=O)O)cc1OC (stereo not drawn) | -3.49%
87 | CCC1CCC(N(C)CCN(C)C)CC1 (stereo not drawn) | 1.74%
88 | c1ccc2c(c1)CC(NCc1ccc3c(c1)OCO3)C2 | -0.292%
89 | CCOc1ccccc1NC(=O)Cn1nc(C(F)F)cc1C | 4%
90 | CCOC(=O)C1=C(CC)OC(N)=C(C#N)C1c1ccc(F)cc1F (stereo not drawn) | 6.18%
91 | CNc1nc(Cl)nc(Nc2ccccc2C#N)n1 | -0.999%
92 | Cc1ccc2[nH]c(SCc3ccc(F)cc3)nc2c1 | -0.0235%
93 | CN(CC(=O)NCc1ccccc1Cl)S(=O)(=O)c1ccc2[nH]c(-c3ccccc3)nc2c1 | 5.1%
94 | COc1ccc(/C=C2/S/C(=N\c3ccccc3)N(C)C2=O)cc1C | -2.83%
95 | COc1ccc(-c2c(C)nn(Cc3ccccc3)c2N)cc1OC | -1.11%
96 | COc1ccccc1Cn1cnc2c1c(=O)n(C)c(=O)n2C | -3.27%
97 | O=C(O)c1ccc2c(c1)C(=O)N(N1C(=O)c3ccccc3C1=O)C2=O | -5.36%
98 | O=C(CC12CC3CC(CC(C3)C1)C2)Nc1c(O)c2ccccc2oc1=O | 0.974%
99 | O=C(O)c1cccc(-n2cccc2/C=C2/NC(=O)N(Cc3ccccc3F)C2=O)c1 | 4.85%
